Experimental data from ChEMBL document CHEMBL1201862, “PubChem BioAssay data set” (2004).
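Compound exposure: 48 hours, 5 concentrations, 96-well plates. GI50 = concentration required for 50% inhibition of growth.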 Activity calls are given as the source filed them. Cut-off read from the data, not from the text of the source: active = GI50 up to about 1.1 µM and inactive = higher. Peptide text beside a SMILES is read from it. * marks the point of attachment. X33 = O=C(c1ccc(-c2ccc(Cl)cc2Cl)o1)*

The molecules below were run on NCI-H322M (assay: inhibition of tumour cell growth, NCI panel, 48 h).

Compound	GI50
CC(=O)c1ccc(NC(=O)/C(CC(=O)c2sc(-c3cccnc3)nc2C)=N/NC(N)=O)cc1	inactive: > 100 µM
NC(CCC(=O)NC(CSC(=O)N(O)c1ccc(Br)cc1)C(=O)NCC(=O)O)C(=O)O (centres undefined)	inactive: > 100 µM
Cc1ccc(/C=C(\NC(=O)c2ccccc2)c2nc3ccccc3[nH]2)cc1	inactive: > 100 µM
CC(C)(C)OC/C=C(/CO)[C@@H]1C=C[C@H](O)C1	inactive: > 100 µM
Cc1ccc(Nc2[nH]c(=O)[nH]c(=O)c2C)cc1Cl	inactive: > 100 µM
CCOC(=O)C(=O)Nc1c(CC)cccc1C(C)C	inactive: > 100 µM
COc1ccc2c(=O)c3c([nH]c2c1)OCC3=O	inactive: > 100 µM
CNC(=S)N/N=C(\C)c1cc(OC)c(OC)cc1O	inactive: > 100 µM
CC/C=C/C[C@H](O)[C@H]1C[C@H]2O[C@H](CC(=O)OC)C[C@H]2O1	inactive: > 100 µM
O=S(=O)(O)c1cc(O)c2c(/N=C\c3ccccc3O)cc(S(=O)(=O)O)cc2c1	inactive: > 100 µM
Clc1ccc(/C=N/c2ccc(Oc3ccc(Cl)cc3)c(Cl)c2)cc1	inactive: 23.8 µM
Cc1ccccc1C(=O)c1c(O)c2c(c(O)c1Br)CCCC2	inactive: 19.2 µM
O=C(NN1C(=O)C(Cl)C1c1cccc(O)c1)c1ccccc1O (centres undefined)	inactive: > 100 µM
CC(C)=CCC\C(C)=C/C=C/C(C)=C\C=C\C(C)=C/C=C/C=C(C)\C=C\C=C(C)/C=C/C=C(/C)CCC=C(C)C	inactive: > 100 µM
O=C1O[B-](c2ccccc2)(c2ccccc2)[NH+]2CCCC12 (centres undefined)	inactive: > 100 µM
CCSc1cc(=O)n(C)c(=O)n1C	inactive: > 100 µM
Cc1cc(C)nc(NS(=O)(=O)c2ccc(NC(=O)c3ccc(Cl)c4c(Nc5ccc(S(=O)(=O)Nc6nc(C)cc(C)n6)cc5)c5ccccc5nc34)cc2)n1	inactive: 3.65 µM
Brc1ccccc1/C=C\C1(c2ccccc2)OCCO1	inactive: 16 µM
Cc1nc(N2N=C(c3ccc(Cl)cc3)CCC2=O)sc1[N+](=O)[O-]	inactive: > 100 µM
C[C@]12CC[C@@H]3c4cc(I)c(O)cc4CC[C@H]3[C@@H]1CC[C@@H]2O	inactive: 4.98 µM
COC(=O)C1=C(O)C(C(=O)OC)[C@]2(O)[C@H](C(=O)OC)[C@H]1C[C@@H](c1ccc(Cl)cc1)[C@H]2C(=O)OC (some centres undefined)	inactive: 6.9 µM
CCSc1n/c(=C\c2ccco2)c2nnnn12	inactive: > 100 µM
O=S(=O)(Cc1nc2ccccc2s1)c1nc2ccccc2s1	inactive: 17.3 µM
O=S(=O)(O)c1ccc2c(/N=N/c3ccc(Sc4ccc(/N=N/c5c(O)ccc6cc(S(=O)(=O)O)ccc56)cc4)cc3)c(O)ccc2c1	inactive: > 100 µM

Compound	GI50
CC(C(=O)O)/C(=C\c1ccc2c(c1)OCO2)C(=O)O (centres undefined)	inactive: > 52.2 µM
N#Cc1c(Cl)c2cc([N+](=O)[O-])ccc2n2c1nc1ccccc12	inactive: 13.5 µM
COc1cc2c(c3nc4ccccc4nc13)-c1ccc(SC)c(=O)cc1[C@@H](NC(C)=O)CC2	active: 0.158 µM
O=C1CCCN(c2ccccc2)N1	inactive: > 100 µM
N#Cc1sc2nc3ccccc3n2c1N	inactive: > 100 µM
N#Cc1cc2c(n(C3OC(CO)C(O)C(O)C3O)c1=S)CCCCCC2 (centres undefined)	inactive: > 100 µM
CCCCCCCCCCCCOC1C(COCCN2CCCCC2)OC2OC(C)(C)OC21 (centres undefined)	inactive: 5.73 µM
COc1cc([C@@H]2OC[C@@H]3C(c4cc(OC)c5c(c4)OCO5)OC[C@@H]32)cc(OC)c1OC (some centres undefined)	inactive: > 100 µM
Brc1ccc(-c2[nH]c3ccccc3c2/C=N\Nc2ccc(-c3nc4ccccc4[nH]3)cc2)cc1	active: < 0.01 µM
COC(=O)c1ccc(Cl)cc1NC(=O)C1CCCCC1	inactive: > 100 µM
CC(C)CCCC(C)C1CCC2C3CC([N+](=O)[O-])=C4CC(O)CCC4(C)C3CCC12C (centres undefined)	inactive: 14.9 µM
CC(=O)OCC1OC(N2C(=O)NC(=O)C3C=C4CCCCC4=CC32)C(OC(C)=O)C1OC(C)=O (centres undefined)	inactive: > 100 µM
COc1ccc(Cc2coc3ccccc3c2=O)cc1OC	inactive: > 100 µM
COc1ccc(Cc2c(N)[nH]c(=O)[nH]c2=O)cc1	inactive: > 100 µM
COc1ccccc1/C=C\c1cc(OC)c(OC)c(OC)c1	inactive: 63.5 µM
Cn1c(NNc2ccccc2)cc(=O)[nH]c1=O	inactive: > 100 µM
NC(=O)N/N=C(\Cc1cc(=O)oc2cc(O)ccc12)C(=O)Nc1ccccc1C(N)=O	inactive: > 100 µM
COC(=O)C(/C(=N/N)C(=O)Nc1ccc(C)c(C)c1)c1nc2ccc(Cl)cc2nc1O (centres undefined)	inactive: > 100 µM
Nc1ccc2[nH]c3c(-c4ccccc4)nccc3c2c1	inactive: > 75.7 µM
COC(=O)[C@]1(c2ccc(N(C)C)cc2OC)C[C@@H]2CCCN(CCc3c1[nH]c1ccccc31)C2	inactive: 29.4 µM
COC(=O)c1c2c(cc3c1CC1(Cc4cc5c(cc4C1)CCC5)C3)CCC2	inactive: > 100 µM
C[N+]1(CC[N+]2(C)CCCC2c2cccnc2)CCCC1c1cccnc1 (centres undefined)	inactive: 18.4 µM
CCCCCCCCCCCC[N+](CCCCCCCCCCCC)=C1SCCS1	inactive: 17 µM
COP(=O)(OC)[C@@](O)(c1ccccc1)[C@@H](O)[C@H](O)c1ccccc1	inactive: > 100 µM

Compound	GI50
COc1ccc(C2NC(=O)Nc3c2c(=O)oc2c3ccc3ccccc32)cc1 (centres undefined)	inactive: 35.9 µM
O=c1[nH]c(C2CCCCC2)nc2c(Cl)cccc12	inactive: > 100 µM
O=c1[nH]c(=O)n(C2CC(O)C(CO)O2)cc1C#Cc1ccc(F)cc1 (centres undefined)	inactive: > 100 µM
Nc1cccnc1NCC1(CO)CCCC1	inactive: > 100 µM
COc1ccccc1-c1cc(=O)c2ccccc2[nH]1	inactive: > 100 µM
COc1cc(Cn2c3c(c4cc(O)ccc42)Cc2ccccc2C3=O)cc(OC)c1	inactive: > 100 µM
COc1ccc(-c2csc3c2-n2cccc2C3=O)cc1	active: 0.112 µM
O=C(NNC(=O)/C(=C/c1cccc([N+](=O)[O-])c1)NC(=O)c1ccccc1)Nc1ccc(Cl)cc1	inactive: 13.2 µM
O=c1cc(N2CCOCC2)[nH]c(=O)n1-c1cccc(C(F)(F)F)c1	inactive: > 100 µM
NC(=O)c1csc(-c2ccc(CO)o2)n1	inactive: > 100 µM
C=CCc1cccc2cc(C(=O)Nc3ccc(C)cc3)c(=N)oc12	inactive: > 100 µM
OC1COC(OCc2ccccc2)C(O)C1O (centres undefined)	inactive: > 100 µM
CCOC(=O)C(=O)NNc1nc2c(s1)C(=O)c1ccccc1C2=O	inactive: 15.8 µM
Nc1ncnc2c1ncn2C(=O)NC12CC3CC(CC(C3)C1)C2	inactive: > 100 µM
O=c1[nH]c(=O)n(C2CC(O)C(CO)O2)cc1OCCc1ccccc1 (centres undefined)	inactive: > 100 µM
O=C1C=C(Nc2cccnc2)c2ccccc2C1=O	inactive: 17.4 µM
CCOC(=O)NC(=O)c1cn(CCCCCCCCCCC(=O)NCCCN2CCN(CCCNC(=O)CCCCCCCCCCn3cc(C(=O)NC(=O)OCC)c(=O)[nH]c3=O)CC2)c(=O)[nH]c1=O	inactive: > 100 µM
CC(C)=NC(C(=O)O)C(C)(C)S (centres undefined)	inactive: > 100 µM
CC(C)C(=O)OCC1CCCN2CCCCC12 (centres undefined)	inactive: > 100 µM
O=C(c1ccccc1)c1ccc2nc3n(c2c1)C(c1c(F)cccc1F)SC3 (centres undefined)	inactive: 7.91 µM
O=c1cc(-c2ccccc2)[nH]c2cccc(S)c12	inactive: 18.1 µM
Cc1cn(C2CC(O)C(Cn3cc(Cn4ncc(=O)[nH]c4=O)nn3)O2)c(=O)[nH]c1=O (centres undefined)	inactive: > 100 µM
NC(=O)c1nc(-c2ccc(Cl)c(Cl)c2)nc2ccccc12	inactive: > 30.3 µM
O=C1Cc2c([nH]c3ccc(Cl)cc23)-c2ccccc2N1	inactive: > 100 µM

Compound	GI50
Cc1ccccc1NC(=O)CC(=O)NNC(Sc1ccccc1)c1cc(/N=N/c2ccc(Br)cc2)ccc1O (centres undefined)	inactive: 1.33 µM
O=C(CC(C(=O)c1cccs1)c1ccc2c(c1)OCO2)c1ccccc1 (centres undefined)	inactive: > 100 µM
Nc1ccc2nc3n(c2c1)C(c1c(F)cccc1F)SC3 (centres undefined)	inactive: > 100 µM
CN1CC2=C(N=C(S)NC2c2ccccc2)/C(=C/c2ccccc2)C1 (centres undefined)	inactive: 97.9 µM
COc1cc(CCC(=O)O)c2cc3ccccc3cc2c1O	inactive: 61.2 µM
CCC1=NC(CO)[C@H](c2ccccc2)O1 (some centres undefined)	inactive: > 100 µM
CCOC(=O)CCSS(=O)(=O)c1ccccc1	inactive: > 100 µM
COP(=O)(OC)C(Nc1ccc(Cc2ccc(NC(c3ccco3)P(=O)(OC)OC)cc2)cc1)c1ccco1 (centres undefined)	inactive: 27.9 µM
CC1(C)OC2C(O)C(CO)OC2(C(F)F)O1 (centres undefined)	inactive: > 100 µM
COC(=O)C(CC(C)C)NC(=O)C(Cc1ccccc1)NC(=O)C1CCCN1C(=O)C(CO)NC(=O)c1ccc(-c2ccc(Cl)cc2Cl)o1 (centres undefined) (X33-SPFL-OMe; configuration not given here)	inactive: 16.9 µM
N#C/C(=N\c1ccccc1N(C(=O)c1ccccc1)C(=O)c1ccccc1)c1ccccc1	inactive: 24 µM
O=c1[nH]c2cc([N+](=O)[O-])ccc2nc1/C(=N/Nc1ccccc1)C(O)c1ccccc1Cl (centres undefined)	inactive: 36.1 µM
CCOC(=O)C1C(=O)C=C(c2cc(C)ccc2O)CC1c1cccc(Cl)c1 (centres undefined)	inactive: 28.2 µM
COc1cc2c(cc1OC)C(O)[C@H](Br)C(C)(C)O2 (some centres undefined)	inactive: > 100 µM
COc1cc(C(=O)c2cocc2C(=O)c2ccc3c(c2)OCO3)cc(OC)c1OC	inactive: 3 µM
N#CC(/C(CCC(=O)Nc1ccc(Cl)cc1)=N/NC(=O)c1cc2ccccc2cc1O)c1ccccc1 (centres undefined)	inactive: 29.6 µM
CN(C)/N=C(\CCN1CCCC1)CC(c1ccccc1)c1c(O)c2ccccc2oc1=O (centres undefined)	inactive: > 100 µM
CCN(CC)c1ccc2cc3ccc(N(CC)CC)cc3[o+]c2c1	inactive: 4.92 µM
NCCCNC(=O)c1csc(NC(=O)c2csc(NC(=O)CCCN)n2)n1	inactive: > 100 µM
Clc1ccc(Cc2nc3ccccc3nc2-c2cccc(Br)c2)cc1	inactive: 16 µM
N#CCC(=O)N/N=C(/C(=O)Nc1ccccc1)C1C(=O)N(c2ccccc2)N=C1N (centres undefined)	inactive: > 100 µM
CC(=O)NC1=CC(=O)C=C(Cl)C1=O	inactive: > 100 µM
